For assay [1], the target named is WASP15-His fusion protein (UniProt P70315). Put plainly: pull-down; WASP15-His or GST-His fusion protein incubated overnight at 4°C with RIPA lysates of wild-type or WASP15 Tg BMDMs, without or with LPS (10 µg/mL, 5 h); complexes taken up by the His tag (anti-His tag Ab, His Tagged Protein Purification Kit); blot with anti-Btk or anti-Grb2; only the target purified.

Protein sequences, listed by entry. Tags and fused reporters are not part of them. Lines headed by an entry give the natural chain unless they say otherwise; changes in a name come on top.
UniProt P70315: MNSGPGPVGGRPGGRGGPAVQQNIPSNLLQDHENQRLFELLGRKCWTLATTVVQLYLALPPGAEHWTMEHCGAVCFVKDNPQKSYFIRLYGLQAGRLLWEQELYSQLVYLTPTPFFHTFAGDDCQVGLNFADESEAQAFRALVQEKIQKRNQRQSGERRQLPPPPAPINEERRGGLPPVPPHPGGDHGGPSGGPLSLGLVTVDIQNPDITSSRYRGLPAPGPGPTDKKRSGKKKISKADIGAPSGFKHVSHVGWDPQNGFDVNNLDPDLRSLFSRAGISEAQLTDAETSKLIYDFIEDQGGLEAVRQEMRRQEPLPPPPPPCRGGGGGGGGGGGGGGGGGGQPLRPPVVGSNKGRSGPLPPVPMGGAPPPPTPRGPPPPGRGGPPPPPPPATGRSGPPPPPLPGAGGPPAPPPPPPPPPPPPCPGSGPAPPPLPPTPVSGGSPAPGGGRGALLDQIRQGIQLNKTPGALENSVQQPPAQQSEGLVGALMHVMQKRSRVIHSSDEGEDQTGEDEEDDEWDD
UniProt Q8K1I7: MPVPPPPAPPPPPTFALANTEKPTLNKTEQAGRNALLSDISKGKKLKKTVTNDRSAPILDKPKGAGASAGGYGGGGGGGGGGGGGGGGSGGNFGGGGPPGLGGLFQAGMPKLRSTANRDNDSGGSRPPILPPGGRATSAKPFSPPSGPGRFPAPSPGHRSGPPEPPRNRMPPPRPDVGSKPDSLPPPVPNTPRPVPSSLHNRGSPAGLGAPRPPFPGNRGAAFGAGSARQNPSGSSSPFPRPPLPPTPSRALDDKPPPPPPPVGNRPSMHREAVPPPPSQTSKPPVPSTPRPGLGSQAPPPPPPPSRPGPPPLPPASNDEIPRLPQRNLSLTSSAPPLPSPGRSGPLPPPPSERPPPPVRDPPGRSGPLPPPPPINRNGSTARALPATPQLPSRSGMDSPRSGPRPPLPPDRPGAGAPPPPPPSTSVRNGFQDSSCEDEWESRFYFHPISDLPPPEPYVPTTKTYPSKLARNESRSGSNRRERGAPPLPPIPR
UniProt Q60631: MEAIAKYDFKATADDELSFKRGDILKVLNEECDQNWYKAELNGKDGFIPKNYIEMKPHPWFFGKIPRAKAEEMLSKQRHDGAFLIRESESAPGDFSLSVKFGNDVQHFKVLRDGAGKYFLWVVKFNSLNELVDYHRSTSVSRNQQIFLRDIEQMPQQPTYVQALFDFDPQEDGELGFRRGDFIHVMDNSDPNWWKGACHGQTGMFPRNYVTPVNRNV

The target of assay [2] is WASP-interacting protein (WIP) (mouse (endogenous in BMDM)) (UniProt Q8K1I7). The assay is described as follows: co-IP; RIPA lysates of wild-type or WASP15 Tg BMDMs immunoprecipitated with anti-WIP pAb; blot with anti-WASP mAb, anti-Btk mAb, anti-WIP.
For assay [3], the target named is Bruton's tyrosine kinase (Btk) (mouse (endogenous in BMDM)) (UniProt P35991). Put plainly: co-IP; RIPA lysates of wild-type or WASP15 Tg BMDMs immunoprecipitated with anti-Btk mAb; blot with anti-WASP pAb, anti-T7 tag pAb, anti-Btk pAb.
The target in assay [4] is T1, GST-Btk-SH3 fusion protein (UniProt P35991).
T1 sequence: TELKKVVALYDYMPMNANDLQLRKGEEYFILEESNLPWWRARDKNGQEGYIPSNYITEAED
The assay is described as follows: pull-down; GST or GST-Btk-SH3 bound to glutathione sepharose beads, incubated overnight at 4°C with precleared RIPA lysates of wild-type or WASP15 Tg BMDMs; beads washed with PBS; blot with anti-WASP mAb; only the target purified.

Results are given in words; binding and its absence hold for the method and conditions named. In cells and extracts the contact can be indirect. Some binding calls cover weakened binding; strength is not graded here. For some assays here: Tags and fused reporters may be left off the sequences shown.

With “Bruton's tyrosine kinase (Btk) (from UniProt P35991 1-659)”, the binding entry in assay [1] is given as “binds”.

On to “Growth factor receptor-bound protein 2 (Grb2) (from UniProt Q60631 1-217)”, for which the binding result in assay [1] is given as “no binding”.

For the substance “Wiskott-Aldrich syndrome protein (WASP), endogenous (from UniProt P70315 1-520)”, the binding result in assay [2], in assay [3] and in assay [4] was “binds” in each case.

As for “truncated WASP (WASP15) overexpressed in WASP15 Tg BMDMs (from UniProt P70315 1-171) (domain or fragment)”, the binding result in assay [2], in assay [3] and in assay [4] was “binds” in each case.

Source of the values: paper PMC3257260.
